Laboratory results taken from US5786324A, “Synthetic peptides with bactericidal activity and endotoxin neutralizing activity for gram negative bacteria and methods for their use” (priority 1994, dated 1998).
“And” between values parts separate entries of the source, which are not always exact repeats. Equal entries are not always repeated. Where two headings read alike, the source gives them in different places. Part of at least one peptide drawing is inferred or uncertain, most often the ends. Some entries repeat one wording, which the source may state once for all of them. Positions of bridges follow the written chain, without caps; N, C: chain ends. Residues, ends and D or L forms follow the SMILES beside them. No end group written: not given here.

Assays:
[1] = tested on: Pseudomonas aeruginosa type 1; assay type: cell-based; conditions: for % Killing of 5 × 10^6 Bacteria / bactericidal activity (in words): P. aeruginosa; for Effective Dose Bactericidal pH 5.6 P. aeruginosa Molar Concentration: Table 5; for bactericidal activity (in words): 1.2×10^-4 M, data not shown
Procedure: Bactericidal activity can be evaluated against a variety of bacteria such as Pseudomonas spp including aeruginosa and P. cepacia, E. coli B, and Staphylococcus aureus. The preferred organism is P. aeruginosa. Bactericidal activity is determined by identifying the effective dose for killing as the molar concentration of the peptide which results in at least a 60% killing of the bacteria, as determined by standard methods. Preferably, the peptide has an effective dose at a concentration of about 1×10^-4 M to about 1×10^-10 M, and more preferably 1×10^-7 M to 1×10^-9M . […] The effective dose for bactericidal activity of B/PI is seen at about […] . Bactericidal activity can also be determined by calculating a lethal dose 50 (LD50) using standard methods. The LD50 is that amount of peptide or protein that kills 50% of the bacteria when measured using standard dose response methods. A bactericidal peptide preferably has an LD50 of about 10^-4 M to about 10^-9 M , more preferably about 10^-7 to 10^-9 M .
(§1) The synthetically produced peptides were assayed for bactericidal activity against Pseudomonas aeruginosa, type 1, P. cepacia ATCC 25608, E. coli B, and Staphylococcus aureus 502A by standard methods.
(§2) Pseudomonas aeruginosa type 1 is a clinical isolate maintained in the laboratory since 1972. The isolate remains a smooth strain and was serotyped by the scheme of Homma. Homma, Jpn. J. Exp. Med., 46:329 (1976). A rough strain E. coli B and S. aureus 502A were obtained from Paul Quie, University of Minnesota. The characteristics of the S. aureus strain have been described in Shinefield et al., Amer. J. Dis. Chil., 105:646 (1963). Pseudomonas cepacia ATCC 25608 was purchased from the American Type Culture Collection in 1980. S. aureus and E. coli were maintained on nutrient agar plates and the Pseudomonas strains were maintained on blood agar plates.
(§3) Pyrogen-free solutions were used throughout this assay and all methods which follow. Log phase bacteria were prepared from a culture in brain heart infusion broth as previously described except that bacteria were washed and resuspended in saline with adjustment to an optical density at 650 nm which would yield 3×10^8 CFU/ml. Bacteria were then diluted 1:10 in 0.08M citrate phosphate buffer, pH 5.6 or pH 7.0, for use in the assay. S. aureus rapidly lost viability in the pH 5.6 buffer and was studied only at pH 7.0. Bactericidal activity was determined by dose response and where an LD50 is indicated, it was determined by linear regression.

[2] = tested on: Staphylococcus aureus 502A; assay type: cell-based; conditions: S. aureus; 1.2×10^-4 M; data not shown
Procedure: as §1, §2, §3

| Compound | Effective Dose Bactericidal pH 5.6 P. aeruginosa Molar Concentration ([1]; pH 5.6) | other results |
| --- | --- | --- |
| CC[C@H](C)[C@H](NC(=O)[C@H](CCCCN)NC(=O)[C@@H](N)CS)C(=O)N[C@@H](CO)C(=O)NCC(=O)N[C@@H](CCCCN)C(=O)N[C@@H](Cc1c[nH]c2ccccc12)C(=O)N[C@@H](CCCCN)C(=O)N[C@@H](C)C(=O)N[C@@H](CCC(N)=O)C(=O)N[C@@H](CCCCN)C(=O)N[C@@H](CCCNC(=N)N)C(=O)N[C@@H](Cc1ccccc1)C(=O)N[C@@H](CC(C)C)C(=O)N[C@@H](CCCCN)C(=O)O [Peptide 8b, ckisgkwkaqkrflk] | 1.5 × 10^-6 M | % Killing of 5 × 10^6 Bacteria ([1]; pH 5.6, 1.5 × 10^-6 M): 88%; % Killing of 5 × 10^6 Bacteria ([1]; pH 5.6, 3.0 × 10^-6 M): 90 ± 5% |
| MNSQVCEKVTNSVSSKLQPYFQTLPVMTKI [Peptide 16, mnsqvcekvtnsvssklqpyfqtlpvmtki] | -- (not active at concentrations of 1.2 × 10^-4 M or less) |  |
| CEFYSENHHNPKWKAQKRFLK [Peptide 17, cefysenhhnpkwkaqkrflk] | 3.0 × 10^-6 M | % Killing of 5 × 10^6 Bacteria ([1]; pH 5.6, 3.0 × 10^-6 M, listed as CHybrid): 74 ± 3% and 74%; molar dose required to kill P. aeruginosa, times lower than the effective dose of the #90-99 peptide ([1]; pH 5.6): 5 times |
| CC[C@H](C)[C@H](NC(=O)[C@@H](N)CCCCN)C(=O)N[C@@H](CO)C(=O)NCC(=O)N[C@@H](CCCCN)C(=O)N[C@@H](Cc1c[nH]c2ccccc12)C(=O)N[C@@H](CCCCN)C(=O)N[C@@H](C)C(=O)N[C@@H](CCC(N)=O)C(=O)N[C@@H](CCCCN)C(=O)N[C@@H](CCCNC(=N)N)C(=O)N[C@@H](Cc1ccccc1)C(=O)N[C@@H](CC(C)C)C(=O)N[C@@H](CCCCN)C(=O)O [Peptide 8a, kisgkwkaqkrflk] | 6.0 × 10^-6 M | % Killing of 5 × 10^6 Bacteria ([1]; pH 5.6, 6.0 × 10^-6 M, listed as #86-99): 79 ± 3%; molar dose required to kill P. aeruginosa, times lower than the effective dose of the #90-99 peptide ([1]; pH 5.6): 2.5 times |
| CKELKRIKIPDY [Peptide 6b, ckelkrikipdy] | -- (not active at concentrations of 1.2 × 10^-4 M or less) |  |
| IKTKKFLKKT [Peptide 24 pure, iktkkflkkt, reference compound] | -- (not active at concentrations of 1.2 × 10^-4 M or less) |  |
| KELKRIKIPDY [Peptide 6a, kelkrikipdy] | -- (not active at concentrations of 1.2 × 10^-4 M or less) | bactericidal activity (in words) [1]: not bactericidal; bactericidal activity (in words) [2]: not bactericidal |
| CSCC[C@H](NC(=O)[C@H](CCCCN)NC(=O)[C@H](CC(C)C)NC(=O)[C@H](Cc1ccccc1)NC(=O)[C@H](CCCNC(=N)N)NC(=O)[C@H](CCCCN)NC(=O)[C@H](CCC(N)=O)NC(=O)[C@H](C)NC(=O)[C@H](CCCCN)NC(=O)[C@H](Cc1c[nH]c2ccccc12)NC(=O)[C@H](CCCCN)NC(=O)[C@@H](N)CS)C(=O)N[C@@H](CO)C(=O)NCC(=O)O [Peptide 9b, ckwkaqkrflkmsg] | 1.5 × 10^-6 M |  |
| MRENMARGPC [Peptide 1, mrenmargpc] | -- (not active at concentrations of 1.2 × 10^-4 M or less) |  |
| EFYSENHHNPKWKAQKRFLK [Peptide 18, efysenhhnpkwkaqkrflk] | 3.0 × 10^-5 M | % Killing of 5 × 10^6 Bacteria ([1]; pH 5.6, 3.0 × 10^-5 M): 79%; % Killing of 5 × 10^6 Bacteria ([1]; pH 5.6, 3.0 × 10^-6 M): 79 ± 5% |
| CSCC[C@H](NC(=O)[C@H](CCCCN)NC(=O)[C@H](CC(C)C)NC(=O)[C@H](Cc1ccccc1)NC(=O)[C@H](CCCNC(=N)N)NC(=O)[C@H](CCCCN)NC(=O)[C@H](CCC(N)=O)NC(=O)[C@H](C)NC(=O)[C@H](CCCCN)NC(=O)[C@H](Cc1c[nH]c2ccccc12)NC(=O)[C@@H](N)CCCCN)C(=O)N[C@@H](CO)C(=O)NCC(=O)O [Peptide 9a, kwkaqkrflkmsg] | 6.0 × 10^-6 M | % Killing of 5 × 10^6 Bacteria ([1]; pH 5.6, 6.0 × 10^-6 M, listed as #90-102): 67 ± 4%; molar dose required to kill P. aeruginosa, times lower than the effective dose of the #90-99 peptide ([1]; pH 5.6): 2.5 times |
| VNPGVVVRISQKGLDYASQQGTAALQ [Peptide 11, vnpgvvvrisqkgldyasqqgtaalq] | -- (not active at concentrations of 1.2 × 10^-4 M or less) |  |
| CKKIESALRNKM [Peptide 7b, ckkiesalrnkm] | -- (not active at concentrations of 1.2 × 10^-4 M or less) |  |
| CKLGSNPTSGK [Peptide 10b, cklgsnptsgk] | -- (not active at concentrations of 1.2 × 10^-4 M or less) |  |
| KLGSNPTSGK [Peptide 10a, klgsnptsgk] | -- (not active at concentrations of 1.2 × 10^-4 M or less) | bactericidal activity (in words) [1]: not bactericidal; bactericidal activity (in words) [2]: not bactericidal |
| CC[C@H](C)[C@H](NC(=O)[C@H](CCCCN)NC(=O)[C@@H](N)CSSC[C@H](N)C(=O)N[C@@H](CCCCN)C(=O)N[C@H](C(=O)N[C@@H](CO)C(=O)NCC(=O)N[C@@H](CCCCN)C(=O)N[C@@H](Cc1c[nH]c2ccccc12)C(=O)N[C@@H](CCCCN)C(=O)N[C@@H](C)C(=O)N[C@@H](CCC(N)=O)C(=O)N[C@@H](CCCCN)C(=O)N[C@@H](CCCNC(=N)N)C(=O)N[C@@H](Cc1ccccc1)C(=O)N[C@@H](CC(C)C)C(=O)N[C@@H](CCCCN)C(=O)O)[C@@H](C)CC)C(=O)N[C@@H](CO)C(=O)NCC(=O)N[C@@H](CCCCN)C(=O)N[C@@H](Cc1c[nH]c2ccccc12)C(=O)N[C@@H](CCCCN)C(=O)N[C@@H](C)C(=O)N[C@@H](CCC(N)=O)C(=O)N[C@@H](CCCCN)C(=O)N[C@@H](CCCNC(=N)N)C(=O)N[C@@H](Cc1ccccc1)C(=O)N[C@@H](CC(C)C)C(=O)N[C@@H](CCCCN)C(=O)O [dimer 8b] | 1.5 × 10^-6 M | % Killing of 5 × 10^6 Bacteria ([1]; pH 5.6, 1.5 × 10^-6 M): 52% |
| CC(C)C[C@@H]1NC(=O)[C@H](Cc2ccccc2)NC(=O)[C@H](CCCCN)NC(=O)[C@@H](NC(=O)[C@H](CCCCN)NC(=O)[C@@H](NC(=O)[C@@H](N)CCCCN)[C@@H](C)O)CSSC[C@@H](C(=O)O)NC(=O)[C@H](CCCCN)NC(=O)[C@H](CCCCN)NC1=O [cyclic 25, reference compound] (H-KTKCKFLKKC-OH; disulfide 4-10) | 1.5 × 10^-5 M |  |
| LPSSQISMVPNVGLKFSISNANIKISG [Peptide 13, lpssqismvpnvglkfsisnanikisg] | -- (not active at concentrations of 1.2 × 10^-4 M or less) |  |
| CC[C@H](C)[C@@H]1NC(=O)[C@H](CCCCN)NC(=O)[C@@H](N)CSSC[C@@H](C(=O)O)NC(=O)[C@H](Cc2ccccc2)NC(=O)[C@H](CC(N)=O)NC(=O)CNC(=O)[C@H](CO)NC(=O)[C@H](CCSC)NC(=O)[C@H](CCCCN)NC(=O)[C@H](CC(C)C)NC(=O)[C@H](Cc2ccccc2)NC(=O)[C@H](CCCNC(=N)N)NC(=O)[C@H](CCCCN)NC(=O)[C@H](CCC(N)=O)NC(=O)[C@H](C)NC(=O)[C@H](CCCCN)NC(=O)[C@H](Cc2c[nH]c3ccccc23)NC(=O)[C@H](CCCCN)NC(=O)CNC(=O)[C@H](CO)NC1=O [cyclic 36] (H-CKISGKWKAQKRFLKMSGNFC-OH; disulfide 1-21) | 1.5 × 10^-7 M |  |
| CC(C)C[C@@H]1NC(=O)[C@H](Cc2ccccc2)NC(=O)[C@H](CCCNC(=N)N)NC(=O)[C@H](CCCCN)NC(=O)[C@H](CCC(N)=O)NC(=O)[C@H](C)NC(=O)[C@H](CCCCN)NC(=O)[C@H](Cc2c[nH]c3ccccc23)NC(=O)[C@H](CCCCN)NC(=O)[C@@H](N)CSSC[C@@H](C(=O)O)NC(=O)[C@H](CCCCN)NC1=O [cyclic 20a] | 3.0 × 10^-5 M | bactericidal activity, fold less than the linear peptide with N- and C-terminal cysteines ([1]; pH 5.6): about 10 fold |
| CC(C)C[C@H](NC(=O)[C@H](Cc1ccccc1)NC(=O)[C@H](CCCNC(=N)N)NC(=O)[C@H](CCCCN)NC(=O)[C@H](CCC(N)=O)NC(=O)[C@H](C)NC(=O)[C@H](CCCCN)NC(=O)[C@H](Cc1c[nH]c2ccccc12)NC(=O)[C@@H](N)CCCCN)C(=O)N[C@@H](CCCCN)C(=O)O [Peptide 5, kwkaqkrflk] | 1.5 × 10^-5 M | % Killing of 5 × 10^6 Bacteria ([1]; pH 5.6, 1.5 × 10^-5 M, listed as #90-99): 75 ± 0% and 75% |
